Test results from PubChem BioAssay AID1346428 (National Center for Advancing Translational Sciences (NCATS), 2018).
The campaign covered roughly 48,000 compounds. About 1,200 (2.5%) were called active. Another 2% or so got no clear call; they are omitted.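 How the source made its calls: active means activation of at least 60% and not above a set upper limit (about 1 call in 100 departs from these limits); inconclusive means activation of 40% to 60%, or above that upper limit; inactive means activation under 40%.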 Some of the results follow.

The molecules below were run against Probable G-protein coupled receptor 32 (Homo sapiens) (UniProt O75388) (assay: qHTS for Agonists of Human Resolvin D1 Receptor DRV1). Details: CHO-K1 GPR32 beta-arrestin PathHunter luminescence, 90 min; at 76.9 µM; stronger effect = higher value; zero percent set by DMSO-only wells.
Chain of UniProt O75388 (O75388 whole entry, looked up): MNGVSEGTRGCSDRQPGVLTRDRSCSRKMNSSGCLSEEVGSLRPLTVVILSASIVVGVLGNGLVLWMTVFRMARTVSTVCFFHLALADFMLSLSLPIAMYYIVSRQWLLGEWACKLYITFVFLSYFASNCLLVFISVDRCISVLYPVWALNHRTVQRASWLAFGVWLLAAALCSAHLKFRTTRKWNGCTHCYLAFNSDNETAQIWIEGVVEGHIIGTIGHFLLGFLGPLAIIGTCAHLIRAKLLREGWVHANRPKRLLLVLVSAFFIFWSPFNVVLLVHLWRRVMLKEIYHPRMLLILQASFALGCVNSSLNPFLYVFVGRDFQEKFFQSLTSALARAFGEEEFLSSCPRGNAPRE
In short: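 CHO-K1 cells stably expressing ProLink-tagged GPR32 and Enzyme Activator-tagged beta-arrestin were seeded at 2,500 cells/well overnight, exposed to compounds for 90 min at 37 °C, then read by beta-Gal complementation chemiluminescence after 1 h detection reagent.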
Further: 0% is about no effect.

activation, inactive:
COc1cc(OC)cc(-c2nc3nc(C)c(CCC(=O)Nc4ccc(Cl)cc4)c(C)n3n2)c1 7.13%
CCOC(=O)c1cnc2c(C)c(Cl)ccc2c1Nc1ccc(C)cc1C 35.8%
CCN(C(=O)c1cc2c(Cl)nc3ccccc3c2s1)c1cccc(Cl)c1 0.844%
CC1=C(C(=O)Nc2cccnc2)C(c2ccc(F)cc2)n2nc(SCc3ccccc3F)nc2N1 (stereo not drawn) 4.49%
CN1c2cc(Cl)ccc2-c2nc(SCC(=O)Nc3ccc(F)cc3F)ncc2S1(=O)=O -0.774%
COc1ccc(OC2CCN(S(=O)(=O)c3ccc(OC)cc3)CC2)cc1 -14.1%
O=C(NC1CCCC1)c1ccc(CSc2nc3ccncc3n2Cc2ccccc2F)cc1 -16%
Cc1cc(NC(=O)CSc2nc3c([nH]c4ccccc43)c(=O)n2-c2cccc(Cl)c2)no1 -2.7%
CCn1cc(C(=O)O)c(=O)c2cc(F)c(N3CCNCC3)nc21 3.22%
Clc1ccc(-c2noc3ncnc(NCCCN4CCN(c5ccccc5)CC4)c23)cc1 39.9%
COc1ccccc1C(=O)NCc1ccc2c(c1)CCN2C(=O)c1ccncc1 -20.4%
CCOC(=O)C1CCCN(C(=O)C2CCN(c3nnc(C)c4c(C)n(-c5ccccc5)nc34)CC2)C1 (stereo not drawn) -7.27%
CCOc1ccccc1NC(=O)C(Cc1ccccc1)NS(=O)(=O)c1ccc(Br)s1 (stereo not drawn) -11.1%
Cc1ccc(C)c(N2CCN(C(=O)C3CCN(S(=O)(=O)c4cn(C)cn4)CC3)CC2)c1 -13.3%
CCc1ccc(CNC(=O)C(CC)n2ccc3cc(S(=O)(=O)N4CCCCC4)ccc32)cc1 (stereo not drawn) 4.81%
COc1ccc(CNS(=O)(=O)c2cc(C(=O)Nc3cc(Cl)cc(Cl)c3)ccc2F)cc1 9.3%
CC(=O)OCC(=O)NCCCOc1cccc(CN2CCCCC2)c1 10.9%
Cc1ccc(Cn2c(C(=O)O)c(CNCc3ccccc3Cl)c3ccc(C)cc32)cc1 13.4%
O=C(O)C1CCNCC1 -3.72%
CCOC(=O)C1CCN(c2ncnc3c2c(-c2ccccc2)cn3-c2cccc(C)c2)CC1 -37.9%
Cc1oc2c(c(C)cc3oc(=O)c(CC(=O)NCCc4ccccc4F)c(C)c32)c1C -13%
CCc1ccc(NC(=O)CN2CCN(Cc3ccccc3)S2(=O)=O)cc1 -5.26%

activation, active:
COc1cc(NC(=O)CN(C)S(=O)(=O)c2ccc3[nH]c4c(c3c2)CCCC4)cc(OC)c1OC 105%
